In the supplement of paper PMC8728848:
This is one part of the list.

Assays:
Experiment in all cases: glycan array binding signal (z-score within array); higher = stronger binding
Conditions in all cases: glycan notation: IUPAC condensed, linker removed
Gal(a1-3)Gal(b1-4)GlcNAc = biological target: Gal(a1-3)Gal(b1-4)GlcNAc
In short: (§1)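 The binding signal is a Z-score computed within each array. Data were drawn from 3228 arrays in the Consortium for Functional Glycomics database, restricted to those with a known protein sequence. Scores were averaged over arrays of the same protein sequence at different concentrations or buffers, and over linkers, and negative values can be taken as non-binding.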

[1] = biological target: Gal(a1-3)Gal(b1-4)GlcNAc(b1-2)Man
In short: as §1

[2] = biological target: Gal(a1-3)Gal(b1-4)GlcNAc(b1-2)Man(a1-3)[Gal(a1-3)Gal(b1-4)GlcNAc(b1-2)Man(a1-6)]Man(b1-4)GlcNAc(b1-4)GlcNAc
In short: as §1

[3] = biological target: Gal(a1-3)Gal(b1-4)GlcNAc(b1-3)GalNAc
In short: as §1

[4] = biological target: Gal(a1-3)Gal(b1-4)GlcNAc(b1-6)GalNAc
In short: as §1

[5] = biological target: Gal(a1-3)Gal(b1-4)[Fuc(a1-3)]GlcNAc
In short: as §1

[6] = biological target: Gal(a1-3)Gal(b1-4)[Fuc(a1-3)]GlcNAc(b1-2)Man(a1-3)[Gal(a1-3)Gal(b1-4)[Fuc(a1-3)]GlcNAc(b1-2)Man(a1-6)]Man(b1-4)GlcNAc(b1-4)GlcNAc
In short: as §1

Gal(a1-3)GalNAc = biological target: Gal(a1-3)GalNAc
In short: as §1

[7] = biological target: Gal(a1-3)[Gal(a1-4)]Gal(b1-4)GlcNAc
In short: as §1

[8] = biological target: Gal(a1-4)Gal(b1-3)GlcNAc(b1-2)Man(a1-3)[Gal(a1-4)Gal(b1-3)GlcNAc(b1-2)Man(a1-6)]Man(b1-4)GlcNAc(b1-4)GlcNAc
In short: as §1

Gal(a1-4)Gal(b1-4)Glc = biological target: Gal(a1-4)Gal(b1-4)Glc
In short: as §1

Gal(a1-4)Gal(b1-4)GlcNAc = biological target: Gal(a1-4)Gal(b1-4)GlcNAc
In short: as §1

[9] = biological target: Gal(a1-4)Gal(b1-4)GlcNAc(b1-2)Man(a1-3)[Gal(a1-4)Gal(b1-4)GlcNAc(b1-2)Man(a1-6)]Man(b1-4)GlcNAc(b1-4)GlcNAc
In short: as §1

[10] = biological target: Gal(a1-4)Gal(b1-4)GlcNAc(b1-3)Gal(b1-4)Glc
In short: as §1

Gal(a1-4)GlcNAc = biological target: Gal(a1-4)GlcNAc
In short: as §1

Gal(a1-6)Glc = biological target: Gal(a1-6)Glc
In short: as §1

Gal(b1-2)Gal = biological target: Gal(b1-2)Gal
In short: as §1

Gal(b1-3)Gal = biological target: Gal(b1-3)Gal
In short: as §1

Gal(b1-3)Gal(b1-4)GlcNAc = biological target: Gal(b1-3)Gal(b1-4)GlcNAc
In short: as §1

Gal(b1-3)GalNAc = biological target: Gal(b1-3)GalNAc
In short: as §1

[11] = biological target: Gal(b1-3)GalNAc(a1-3)[Fuc(a1-2)]Gal(b1-4)Glc
In short: as §1

[12] = biological target: Gal(b1-3)GalNAc(a1-3)[Fuc(a1-2)]Gal(b1-4)GlcNAc
In short: as §1

Gal(b1-3)GalNAc(b1-3)Gal = biological target: Gal(b1-3)GalNAc(b1-3)Gal
In short: as §1

[13] = biological target: Gal(b1-3)GalNAc(b1-3)Gal(a1-4)Gal(b1-4)Glc
In short: as §1

[14] = biological target: Gal(b1-3)GalNAc(b1-4)Gal(b1-4)Glc
In short: as §1

[15] = biological target: Gal(b1-3)GalNAc(b1-4)[Neu5Ac(a2-3)]Gal(b1-4)Glc
In short: as §1

Gal(b1-3)GlcNAc = biological target: Gal(b1-3)GlcNAc
In short: as §1

[16] = biological target: Gal(b1-3)GlcNAc(a1-3)Gal(b1-4)GlcNAc
In short: as §1

[17] = biological target: Gal(b1-3)GlcNAc(a1-6)Gal(b1-4)GlcNAc
In short: as §1

Gal(b1-3)GlcNAc(b1-2)Man = biological target: Gal(b1-3)GlcNAc(b1-2)Man
In short: as §1

[18] = biological target: Gal(b1-3)GlcNAc(b1-2)Man(a1-3)[Gal(b1-3)GlcNAc(b1-2)Man(a1-6)]Man(b1-4)GlcNAc(b1-4)GlcNAc
In short: as §1

[19] = biological target: Gal(b1-3)GlcNAc(b1-2)Man(a1-3)[Gal(b1-3)GlcNAc(b1-2)Man(a1-6)]Man(b1-4)GlcNAc(b1-4)[Fuc(a1-6)]GlcNAc
In short: as §1

[20] = biological target: Gal(b1-3)GlcNAc(b1-2)Man(a1-3)[GlcNAc(b1-4)][Gal(b1-3)GlcNAc(b1-2)Man(a1-6)]Man(b1-4)GlcNAc(b1-4)GlcNAc
In short: as §1

[21] = biological target: Gal(b1-3)GlcNAc(b1-2)[Gal(b1-3)GlcNAc(b1-6)]Man(a1-6)[Gal(b1-3)GlcNAc(b1-2)Man(a1-3)]Man(b1-4)GlcNAc(b1-4)GlcNAc
In short: as §1

[22] = biological target: Gal(b1-3)GlcNAc(b1-3)Gal(b1-3)GlcNAc
In short: as §1

[23] = biological target: Gal(b1-3)GlcNAc(b1-3)Gal(b1-4)Glc
In short: as §1

[24] = biological target: Gal(b1-3)GlcNAc(b1-3)Gal(b1-4)GlcNAc
In short: as §1

B1: SGC, Q9M345 (protein)
chain: QNLNFTYNGFHPPLTDISLQGLATVTPNGLLKLTNTSVQKTGHAFCTERIRFKDSQNGNVSSFSTTFVFAIHSQIPTLSGHGIAFVVAPTLGLPFALPSQYIGLFNISNNGNDTNHIFAVEFDTIQSSEFGDPNDNHVGIDLNGLRSANYSTAGYRDDHDKFQNLSLISRKRIQVWIDYDNRSHRIDVTVAPFDSDKPRKPLVSYVRDLSSILLEDMYVGFSSATGSVLSEHFLVGWSFRLNGEAPMLSLSKLPKLPRFEPRRIS
With B1 the “glycan array binding signal (z-score)” value (Gal(a1-3)Gal(b1-4)GlcNAc) was -0.148, the “glycan array binding signal (z-score)” value [1] was -0.355 and the “glycan array binding signal (z-score)” value [2] was 0.865. The “glycan array binding signal (z-score)” value [3] was -0.313, the “glycan array binding signal (z-score)” value [4] was -0.307 and the “glycan array binding signal (z-score)” value [5] was -0.377. The “glycan array binding signal (z-score)” value [6] was 1.5, the “glycan array binding signal (z-score)” value (Gal(a1-3)GalNAc) was -0.377 and the “glycan array binding signal (z-score)” value [7] was 0.712. The “glycan array binding signal (z-score)” value [8] was 0.05, the “glycan array binding signal (z-score)” value (Gal(a1-4)Gal(b1-4)Glc) was -0.292 and the “glycan array binding signal (z-score)” value (Gal(a1-4)Gal(b1-4)GlcNAc) was -0.313. The “glycan array binding signal (z-score)” value [9] was 1.84, the “glycan array binding signal (z-score)” value [10] was 0.556 and the “glycan array binding signal (z-score)” value (Gal(a1-4)GlcNAc) was -0.329. The “glycan array binding signal (z-score)” value (Gal(a1-6)Glc) was -0.4, the “glycan array binding signal (z-score)” value (Gal(b1-2)Gal) was -0.409 and the “glycan array binding signal (z-score)” value (Gal(b1-3)Gal) was -0.361. For the same binder, the “glycan array binding signal (z-score)” value (Gal(b1-3)Gal(b1-4)GlcNAc) was 0.776, the “glycan array binding signal (z-score)” value (Gal(b1-3)GalNAc) was -0.125 and the “glycan array binding signal (z-score)” value [11] was -0.312. The “glycan array binding signal (z-score)” value [12] was -0.316, the “glycan array binding signal (z-score)” value (Gal(b1-3)GalNAc(b1-3)Gal) was -0.362 and the “glycan array binding signal (z-score)” value [13] was -0.278. For the same binder, the “glycan array binding signal (z-score)” value [14] was -0.306, the “glycan array binding signal (z-score)” value [15] was -0.087 and the “glycan array binding signal (z-score)” value (Gal(b1-3)GlcNAc) was -0.208. The “glycan array binding signal (z-score)” value [16] was -0.348, the “glycan array binding signal (z-score)” value [17] was 0.154 and the “glycan array binding signal (z-score)” value (Gal(b1-3)GlcNAc(b1-2)Man) was 0.314. For the same binder, the “glycan array binding signal (z-score)” value [18] was 3.77, the “glycan array binding signal (z-score)” value [19] was 6.74 and the “glycan array binding signal (z-score)” value [20] was -0.083. The “glycan array binding signal (z-score)” value [21] was 3.03, the “glycan array binding signal (z-score)” value [22] was 0.723 and the “glycan array binding signal (z-score)” value [23] was -0.365. For the same binder, the “glycan array binding signal (z-score)” value [24] was -0.434.
